# The whole screen tested about 390,000 compounds, of which about 17,000 (4.4%) were called active. Inconclusive results, whose numbers are uncertain, are shown with a selection of clear calls. The call rests on the fitted dose curve; in most records, active means well fitted inhibition curve with a large enough effect; inconclusive means small, poorly fitted or top-dose-only effect; inactive means no such curve, though single readings can be large or run the other way. Potencies of inconclusive entries are doubtful fits and often do not repeat.
# Molecular target: Lysine-specific demethylase 4A (Homo sapiens) (UniProt O75164)
# Test: qHTS Assay for Inhibitors of JMJD2A-Tudor Domain; further: nearly all actives have a fitted effect of over 50% in size
# Conditions: AlphaScreen JMJD2A-Tudor / H3K4me3 peptide binding; activity change, negative = inhibition: at 114 µM (top of the series)
# On the % scale 0 is the no-effect control and ±100 the full control effect; potency means the concentration at half of the fitted maximal effect; tags describe the fitted curve by direction and shape.
# UniProt O75164, sequence (O75164 whole entry, looked up, the tested form may be a part): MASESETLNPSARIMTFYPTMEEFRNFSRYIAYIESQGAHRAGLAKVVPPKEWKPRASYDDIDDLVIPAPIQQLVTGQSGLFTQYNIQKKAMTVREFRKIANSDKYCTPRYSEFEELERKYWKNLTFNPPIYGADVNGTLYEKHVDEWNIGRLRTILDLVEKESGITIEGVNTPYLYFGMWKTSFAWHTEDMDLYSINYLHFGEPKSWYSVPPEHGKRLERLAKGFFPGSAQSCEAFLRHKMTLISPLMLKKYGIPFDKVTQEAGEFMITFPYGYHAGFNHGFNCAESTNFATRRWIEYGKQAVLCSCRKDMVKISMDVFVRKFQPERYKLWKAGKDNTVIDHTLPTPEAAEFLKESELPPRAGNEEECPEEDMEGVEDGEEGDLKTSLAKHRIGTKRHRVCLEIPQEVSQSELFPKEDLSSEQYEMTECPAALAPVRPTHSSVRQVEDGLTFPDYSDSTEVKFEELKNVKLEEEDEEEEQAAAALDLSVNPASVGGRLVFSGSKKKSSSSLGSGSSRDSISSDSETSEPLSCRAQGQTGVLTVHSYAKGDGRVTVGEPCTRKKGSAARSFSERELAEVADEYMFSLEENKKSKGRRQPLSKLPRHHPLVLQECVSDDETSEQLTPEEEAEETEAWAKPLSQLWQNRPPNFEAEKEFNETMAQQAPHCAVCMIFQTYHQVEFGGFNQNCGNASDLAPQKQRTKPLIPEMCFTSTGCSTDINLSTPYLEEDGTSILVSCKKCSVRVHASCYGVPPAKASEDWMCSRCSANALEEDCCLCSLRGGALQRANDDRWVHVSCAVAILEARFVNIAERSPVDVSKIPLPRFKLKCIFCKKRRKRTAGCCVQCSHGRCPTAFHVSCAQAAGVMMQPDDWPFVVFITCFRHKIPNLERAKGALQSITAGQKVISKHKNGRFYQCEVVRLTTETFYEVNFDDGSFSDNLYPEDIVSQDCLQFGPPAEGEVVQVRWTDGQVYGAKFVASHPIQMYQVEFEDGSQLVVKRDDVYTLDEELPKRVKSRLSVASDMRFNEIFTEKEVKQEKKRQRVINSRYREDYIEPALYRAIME
SMILES,"activity change, negative = inhibition",Potency
O=C(NC(=S)Nc1ccc(CN2CCCCC2)cc1)c1cccc(OCc2ccccc2)c1,inconclusive: -73.2% [inhibitor],–
N#CC1=C(N)S[C@H](C(=O)C23CC4CC(CC(C4)C2)C3)[C@H]1c1ccncc1,–,"inconclusive: 50.1 µM [inhibitor, partial curve]"
CC(=O)N1CC(C)Oc2ccc(S(=O)(=O)NC(CC(=O)O)c3ccccc3)cc21 (stereo not given),inactive: -1.09%,–
OCCCn1c(CCCNc2nc(-c3cccc(Br)c3)cs2)nc2cc(Cl)c(N3CCCCC3)cc21,–,"inconclusive: 56.2 µM [inhibitor, partial curve]"
COc1ccccc1C(=O)C1CCCN(C(=O)c2snnc2C)C1 (stereo not given),inactive: -10.2%,–
Cc1cccc(C(=O)N2CCNC(=O)C2CC(=O)Nc2ccc(F)cc2)c1 (stereo not given),inactive: 3.78%,–
CC(=O)Nc1ccc(-c2csc(NCc3ccco3)n2)cc1,–,"inconclusive: 50.1 µM [inhibitor, partial curve]"
COc1cc2c(cc1OC)CN(C(=O)c1ccc(-c3ccccc3)cc1)CC2,–,"inconclusive: 50.1 µM [inhibitor, partial curve]"
COc1ccc(C(=O)Nc2ccc(NC(=O)c3cccs3)cn2)cc1,–,"inconclusive: 44.7 µM [inhibitor, partial curve]"
COc1cccc(CN(Cc2cccnc2)S(=O)(=O)c2ccc(-n3cnnn3)c(C)c2)c1OC,–,"inconclusive: 89.1 µM [inhibitor, single point]"
CCOC(=O)COc1c(Br)cc(/C=C2\SC(=O)N(CC(=O)N3CCCC3)C2=O)cc1OC,–,"inconclusive: 39.8 µM [inhibitor, single point]"
COc1ccc(C(=O)c2sc(NC(C)C)nc2N)cc1OC,–,"inconclusive: 79.4 µM [inhibitor, partial curve]"
O=C(COC(=O)c1ccc(Cl)cc1[N+](=O)[O-])NCc1ccco1,inactive: -29.1%,–
Cc1ccc(CN(C)C(=O)CCc2c[nH]c3ccccc23)o1,–,"inconclusive: 50.1 µM [inhibitor, partial curve]"
Nc1cc(C(=O)O)c(Oc2ccc(Cl)cc2Cl)cc1C(=O)O,–,"inconclusive: 79.4 µM [inhibitor, single point]"
COc1ccc2c(c1)C(C)CC(C)(C)N2C(=O)CSc1nc2ccccc2s1 (stereo not given),inactive: 3.41%,–
Cc1ccc(S(=O)(=O)NCc2ccccn2)c(C)c1C,inactive: -12.3%,–
Cc1c(C(=O)c2cccc([N+](=O)[O-])c2)c2ccccn2c1CCC#N,–,"inconclusive: 50.1 µM [inhibitor, partial curve]"
O=c1[nH]c(SCc2ccccc2)nc2c1CCCC2,inactive: 9.6%,–
O=C(O)c1ccc(COc2ccc3c4c(c(=O)oc3c2)CCC4)o1,–,"inconclusive: 89.1 µM [inhibitor, single point]"
COc1ccc(Nc2ccc(C(N)=O)cc2[N+](=O)[O-])cc1,inconclusive: -40.2% [inhibitor],–
COc1ccc(N(Cc2ccc(N(C)C)cc2)C(=O)c2ccc(S(C)(=O)=O)cc2)cc1,–,active: 63.1 µM
COc1cccc(/C=C2\Oc3cc(OCC(=O)N4CCC[C@H]4C(=O)O)ccc3C2=O)c1,inactive: -21.1%,–
O=C1C=C(c2ccccc2)C[C@@H](c2ccc(Cl)cc2)C1,inactive: 25.7%,–
CC(C)NC1=C(Cl)C(=O)c2ccccc2C1=O,–,active: 39.8 µM

SMILES,"activity change, negative = inhibition",Potency
CCn1c(O)c(N=NC(=O)c2cccc(S(=O)(=O)N3CCCCC3)c2)c2ccccc21,–,"inconclusive: 14.1 µM [inhibitor, full curve]"
CCCCSCCCNC(=O)C1CCN(Cc2nc(-c3ccc(CC)cc3)oc2C)CC1,–,"inconclusive: 56.2 µM [inhibitor, partial curve]"
CCOc1ccc(CCNC(=O)C(CC)n2nc(C)c3c(C)n(-c4ccccc4)nc3c2=O)cc1 (stereo not given),inactive: -3.79%,–
COc1ccc(-n2ccnc(SCC(=O)NCc3ccc(C)cc3)c2=O)cc1Cl,inactive: -23.6%,–
Cn1nnnc1SCCCNCc1cc(Br)ccc1OCc1ccccc1,inactive: -6.29%,–
COc1ccc(/C=C\C(=O)NCc2ccc3c(c2)cc(C)n3C)cc1OC,–,"inconclusive: 79.4 µM [inhibitor, partial curve]"
Cc1cc(-c2n[nH]c(=S)n2Cc2ccco2)nn1C,–,active: 6.31 µM
COc1ccc(Nc2nc(C(=O)N3CCc4cc(OC)c(OC)cc4C3)cs2)cc1,–,"inconclusive: 56.2 µM [inhibitor, partial curve]"
COc1cc2c(cc1OC)-c1cc(=Nc3c(C)cc(C)cc3C)n(C)c(=O)n1CC2,–,"inconclusive: 25.1 µM [inhibitor, partial curve]"
NC(=O)c1ccsc1NC(=O)c1ccc([N+](=O)[O-])o1,–,"inconclusive: 39.8 µM [inhibitor, partial curve]"
Cc1cc(NC(=O)CSc2ccc(F)cc2)no1,inactive: -4.19%,–
COC(=O)c1cnn(-c2ccc(F)cc2F)c1/C=N/NC(=S)NC(C)(C)C,–,"inconclusive: 50.1 µM [inhibitor, partial curve]"
N/C(=N\OC(=O)c1ccc(Cl)cc1[N+](=O)[O-])c1ccccn1,–,"inconclusive: 3.55 µM [inhibitor, partial curve]"
Cc1oc(-c2ccccc2Cl)nc1CS(=O)CC(=O)N1CCN(c2cccc(C(F)(F)F)c2)CC1 (stereo not given),–,"inconclusive: 39.8 µM [inhibitor, full curve]"
CC1(C)CC(C)(c2ccc(O)cc2O)N(c2ccc3ccccc3c2)C(=S)N1 (stereo not given),–,"inconclusive: 79.4 µM [inhibitor, partial curve]"
CCOc1ccc(Nc2nc(Cc3nnc(SCC(=O)N(CC)CC)n3C)cs2)cc1,inactive: -15% [at 57.1 µM],–
CC(=O)c1ccc(N2CCN(C(=O)CN3C(=O)NC4(CCCCC4)C3=O)CC2)c(F)c1,inactive: -2.36%,–
O=[N+]([O-])c1ccc(C(c2sc3nc(-c4ccco4)nn3c2O)N2CCN(Cc3ccccc3)CC2)cc1 (stereo not given),–,"inconclusive: 56.2 µM [inhibitor, partial curve]"
Cc1[nH]c2ccccc2c1SCC(=O)N1CCN(c2ccccc2)CC1,–,"inconclusive: 79.4 µM [inhibitor, single point]"
NC(=O)c1ccc(-c2ccc(Br)cc2)o1,inactive: -27.7%,–
COc1cccc(NC(=S)N(CCCN2CCCC2)Cc2cccn2Cc2ccc(Cl)cc2)c1,–,active: 44.7 µM
CCOC(=O)N1CCC(Nc2ccc(N3C(=O)C4CCCCC4C3=O)cc2[N+](=O)[O-])CC1 (stereo not given),–,"inconclusive: 56.2 µM [inhibitor, partial curve]"
O=C1c2ccccc2C(=O)N1CCCc1c[nH]c2ccc(Cl)cc12,–,"inconclusive: 39.8 µM [inhibitor, partial curve]"
O=C(c1cccc([N+](=O)[O-])c1)N1CCOCC1,inactive: -6.27%,–
CN(C)c1ccc(NC(=O)CC(NCc2ccccn2)C(=O)O)cc1 (stereo not given),–,active: 17.8 µM

SMILES,"activity change, negative = inhibition",Potency
O=C(N/C(=C\c1ccccc1)C(=O)N1CCCCCC1)c1ccccc1,–,"inconclusive: 15.8 µM [inhibitor, partial curve]"
COc1ccc(/C=N/NC(=O)CN2CCCc3ccccc32)c(OC)c1,–,active: 50.1 µM
COc1ccc(N2CCN(C(c3ccccc3)c3nnnn3Cc3ccc(F)cc3)CC2)cc1 (stereo not given),–,"inconclusive: 50.1 µM [inhibitor, partial curve]"
Clc1ccc(-c2ccc(CNCC3CCCO3)o2)cc1 (stereo not given),inactive: -26.4%,–
O=C(CC1C(=O)NCCN1Cc1cccc(Oc2ccccc2)c1)NCC1CCOCC1 (stereo not given),inactive: -17.3%,–
C/C(=N\NS(=O)(=O)c1ccccc1)c1cc(Cl)cc(Cl)c1O,inactive: -30.1%,–
CCC(=O)N1c2ccccc2CC1C(=O)NCCc1ccc(SC)cc1 (stereo not given),inactive: -7.62%,–
COc1ccc(NCC(=O)n2c(C)c(C)c3ccccc32)cc1OC,–,"inconclusive: 89.1 µM [inhibitor, partial curve]"
COc1ccc(NC(=O)c2ccc(F)c(F)c2)c2ccccc12,inactive: -4.93%,–
O=C(O)c1cccc(Nc2ccncc2[N+](=O)[O-])c1,–,active: 20 µM
O=C(Cc1ccsc1)Nc1ccc2c(c1)OCO2,inactive: -12.5%,–
COc1cccc(N2CCN(C(=O)c3oc4ccccc4c3NC(=O)CCc3cc(OC)no3)CC2)c1,–,"inconclusive: 56.2 µM [inhibitor, partial curve]"
COc1ccc(NC(=O)C(c2ccccc2)N2Cc3ccccc3C2=O)cc1 (stereo not given),inactive: -26%,–
CC(=O)n1cc(C(C[N+](=O)[O-])SCCN)c2ccccc21 (stereo not given),–,"inconclusive: 7.94 µM [inhibitor, full curve, poor fit]"
COC(=O)c1ccc(NC(=S)Nc2ccccn2)cc1,–,"inconclusive: 89.1 µM [inhibitor, single point]"
OCCOCCN1CCN(C(=S)Nc2ccccc2)CC1,inactive: -7.96%,–
C=CCn1c(C)cc(C(=O)CSc2n[nH]c(N)n2)c1C,–,"inconclusive: 89.1 µM [inhibitor, partial curve]"
COc1ccc(CN(C)C(=O)CCN(c2ccccc2)S(=O)(=O)c2ccc(C)cc2)c(OC)c1,inactive: -22.1%,–
CC1(C)Cc2c(sc3ncnc(NN)c23)CO1,–,active: 50.1 µM
Nc1ccc(C(=O)Nc2ccc(Nc3ccncc3)cc2)cc1,inactive: -24.6%,–
Cc1ccc(-c2nc(N)sc2-c2ccc(C)cc2)cc1,–,"inconclusive: 79.4 µM [inhibitor, partial curve]"
N#CC1=C2N=C(N)c3c(sc4c3CCCCC4)N2C2=C(C(=O)CCC2)C1c1ccccc1 (stereo not given),–,"inconclusive: 39.8 µM [inhibitor, partial curve]"
Cc1ccc(NCc2nnc(SCc3ccc(C#N)cc3)n2Cc2ccco2)c(C)c1,–,"inconclusive: 50.1 µM [inhibitor, partial curve]"
CCC(=O)Nc1ccc2c(c1)ncn2C,inactive: -11%,–
O=C(Nc1ccccc1)c1nc[nH]c1C(=O)NCCNC(=O)c1[nH]cnc1C(=O)Nc1ccccc1,inactive: -16.5%,–

# From PubChem BioAssay AID504339 (National Center for Advancing Translational Sciences (NCATS), 2011)
